Results taken from PubChem BioAssay AID504706 (National Center for Advancing Translational Sciences (NCATS), 2011).
Out of some 320,000 compounds screened, about 200 (0.062%) were called active. This list was built around the results that the source calls inconclusive (neither active nor inactive); the mix of calls is not that of the screen. The call rests on the fitted dose curve; in most records, active means well fitted activation curve with a large enough effect; inconclusive means small, poorly fitted or top-dose-only effect; inactive means no such curve, though single readings can be large or run the other way. Potencies of inconclusive entries are left out as doubtful fits.

Test: qHTS assay for re-activators of p53 using a Luc reporter; further: nearly all actives have a fitted effect of over 45% in size
Details: H1299 p53-A138V BP100-luciferase reporter, luminescence, 24 h; series mostly up to 92.2 µM
Method in brief: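 p53-null H1299 cells stably carrying temperature-sensitive p53-A138V and a BP100-luciferase reporter were pinned with compounds (4-point, 1:5 series) and held 24 hrs at 37 deg C. Luminescence was read 10 min after detection reagent.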
Potency means the concentration at half of the fitted maximal effect; tags describe the fitted curve by direction and shape.

Q: For `COc1ccc(NC(=O)CSc2nnc(C)n2C2CC2)cc1S(=O)(=O)N1CCOCC1`, which Potency is on record?
A: inconclusive [activator, single point]

Q: For `O=C(c1ccc(Cl)cc1)N1CCOc2ccccc21`, which Potency is on record?
A: inconclusive [activator, full curve, poor fit]

Q: Which Potency does the source give for `CC(C)(C)c1ccc(/C=C/C(=O)Nc2cccnc2)cc1` here?
A: inconclusive [activator, partial curve, poor fit]

Q: With `O=C(COc1ccccc1-c1ccccc1)N/N=C/c1ccccn1` as the compound, how does the Potency read?
A: inactive

Q: For `CCOc1ccc2nc(NC(=O)C(CC)Sc3nc(C)cc(=O)[nH]3)sc2c1` (centres undefined), which Potency is on record?
A: inconclusive [activator, partial curve, poor fit]

Q: For `COc1ccc(N=C2C(=Nc3ccc(OC)cc3)N(c3ccccc3)C(=S)N2C(=O)c2ccc(Cl)cc2)cc1`, which Potency is on record?
A: inconclusive [activator, partial curve]

Q: With `CCCc1ccc(-c2cc(NC(=O)CSc3nnc(N)s3)n(-c3ccccc3)n2)cc1` as the compound, how does the Potency read?
A: inconclusive [activator, partial curve, poor fit]

Q: For `CCOC(=O)c1ccc2c(c1)nc(-c1ccccn1)n2CC`, which Potency is on record?
A: inconclusive [activator, partial curve, poor fit]

Q: Which Potency does the source give for `OCC1OC(Oc2cccc3ccccc23)C(O)C(O)C1O` (centres undefined) here?
A: inactive

Q: For `O=C1c2ccccc2C(=O)N1C1CCCCC1`, which Potency is on record?
A: inconclusive [activator, single point]

Q: For `O=C(NC(=S)Nc1ccc(CN2CCOCC2)cc1)c1ccc(-c2cccc(Cl)c2)o1`, which Potency is on record?
A: inactive

Q: With `Nc1nc(CSC(=S)N2CCOCC2)nc(Nc2ccc(F)cc2)n1` as the compound, how does the Potency read?
A: inconclusive [activator, full curve, poor fit]

Q: Which Potency does the source give for `O=C(Nc1nccs1)c1ccc(Br)c(S(=O)(=O)N2CCOCC2)c1` here?
A: inactive

Q: With `Cc1nc([N+](=O)[O-])cn1CC(=O)Nc1ccc([N+](=O)[O-])cc1` as the compound, how does the Potency read?
A: inconclusive [activator, single point]

Q: With `CC(=O)c1c(C)[nH]c(C(=O)Nc2nc(-c3ccccc3)c(C)s2)c1C` as the compound, how does the Potency read?
A: inconclusive [activator, full curve, poor fit]

Q: Which Potency does the source give for `O=C(c1ccccc1)c1cc2cc(Cl)ccc2[nH]1` here?
A: inconclusive [activator, full curve, poor fit]

Q: Which Potency does the source give for `Cc1ccc(NC(=O)Cn2ncc3c([nH]c4ccccc43)c2=O)cc1Cl` here?
A: inactive

Q: With `COc1ccc2occ(C(=O)c3cccs3)c2c1` as the compound, how does the Potency read?
A: inconclusive [activator, partial curve, poor fit]

Q: Which Potency does the source give for `COc1ccc(NC(=S)NC(=NS(=O)(=O)c2ccc(Cl)cc2)c2ccccc2)cc1` here?
A: inconclusive [activator, partial curve, poor fit]

Q: For `Cc1ccc(S(=O)(=O)N(C)c2ccc(N)cc2)cc1`, which Potency is on record?
A: inactive

Q: For `CN(C)c1ccc(C2(c3ccc(N(C)C)cc3)OC(=O)c3cc(N)ccc32)cc1`, which Potency is on record?
A: inconclusive [activator, single point]

Q: With `O=C(NNS(=O)(=O)c1ccccc1F)c1cccc(S(=O)(=O)N2CCOCC2)c1` as the compound, how does the Potency read?
A: inactive

Q: With `COCC1CCCN(C(=O)c2cc(COc3cncc(Cl)c3)on2)C1` (centres undefined) as the compound, how does the Potency read?
A: inconclusive [activator, partial curve, poor fit]

Q: For `COc1ccc(C(=O)OCC(N)=O)cc1[N+](=O)[O-]`, which Potency is on record?
A: inactive

Q: With `CC(C)(C)OC(=O)NCCCCCNC(=O)c1nc[nH]c1C(=O)NCc1ccc(CNC(=O)OC(C)(C)C)cc1` as the compound, how does the Potency read?
A: inactive

Q: Which Potency does the source give for `S=C(NCc1ccccc1)Nc1ccc2ccccc2c1` here?
A: inconclusive [activator, full curve, poor fit]

Q: Which Potency does the source give for `COc1cccc(C(=O)NOCc2ccc(C)cc2)c1OC` here?
A: inconclusive [activator, partial curve, poor fit]

Q: With `Cc1ccnc(N2C(=O)c3ccccc3C2Nc2ccc3c(c2)OCCO3)c1` (centres undefined) as the compound, how does the Potency read?
A: inconclusive [activator, partial curve, poor fit]

Q: With `COc1ccc(-c2nc(NC(=O)c3ccccc3)sc2-c2ccc([N+](=O)[O-])cc2)cc1` as the compound, how does the Potency read?
A: inactive

Q: With `Nc1c(-c2cccc([N+](=O)[O-])c2)nc2ccccn12` as the compound, how does the Potency read?
A: inconclusive [activator, partial curve, poor fit]

Q: With `O=C(Cc1noc2ccccc12)NNC(=S)Nc1ccc(Cl)cc1` as the compound, how does the Potency read?
A: inactive

Q: Which Potency does the source give for `Cc1ccc(C(=O)O/N=C(\N)c2cccc([N+](=O)[O-])c2)cc1` here?
A: inconclusive [activator, partial curve, poor fit]

Q: For `Cc1c(C(=O)N2CCCCC2)oc2ccccc12`, which Potency is on record?
A: inconclusive [activator, partial curve, poor fit]

Q: Which Potency does the source give for `COc1ccc2cc(CN(CC3CCCO3)C(=S)Nc3ccccc3)c(=O)[nH]c2c1` (centres undefined) here?
A: inactive

Q: For `O=C(NNC(=S)NC(=O)c1ccccc1[N+](=O)[O-])c1ccccc1[N+](=O)[O-]`, which Potency is on record?
A: inactive

Q: With `COc1cccc(N(C(=O)c2cccs2)c2nc3ccccc3s2)c1` as the compound, how does the Potency read?
A: inconclusive [activator, partial curve, poor fit]

Q: For `OCCC1CN(CC2CCCCC2)CCN1C1CCCC1` (centres undefined), which Potency is on record?
A: inconclusive [activator, single point]

Q: For `COc1ccc(NC(=O)CSc2ccc(-c3ccccn3)nn2)cc1OC`, which Potency is on record?
A: inconclusive [activator, single point]

Q: With `CC(=O)c1ccc(OCCCN2CCCCC2)cc1` as the compound, how does the Potency read?
A: inactive

Q: With `COC(=O)c1c(NC(=O)c2cccs2)sc2c1CCC(C)C2` (centres undefined) as the compound, how does the Potency read?
A: inconclusive [activator, partial curve, poor fit]

Q: Which Potency does the source give for `COc1ccc2cc(-c3cc(C(=O)OCC(=O)NC4CCS(=O)(=O)C4)c4ccccc4n3)ccc2c1` (centres undefined) here?
A: inconclusive [activator, partial curve, poor fit]

Q: With `CC(C)CN1C(=O)c2ccc(NC(=O)c3ccccc3F)cc2C1=O` as the compound, how does the Potency read?
A: inactive

Q: Which Potency does the source give for `CC(C)C[C@@H](CO)N1CCN(Cc2cccc(C#N)c2)CCC1=O` here?
A: inactive

Q: Which Potency does the source give for `c1ccc(Cn2ccc(-c3cnc(-c4ccccc4)s3)n2)cc1` here?
A: inconclusive [activator, partial curve]

Q: For `O=C(N/N=C/c1cc(Br)ccc1O)Nc1ccccc1`, which Potency is on record?
A: inconclusive [activator, single point]

Q: For `Cc1cc(NC(=O)c2ccc(Cl)cc2)ccc1NC(=O)c1ccccc1Cl`, which Potency is on record?
A: inconclusive [activator, single point]

Q: With `CC(C)(C)NC(=S)NCCc1ccccc1` as the compound, how does the Potency read?
A: inconclusive [activator, partial curve, poor fit]

Q: With `COc1ccc(C(=O)c2c3ccccc3[n+]([O-])n2CCCN)cc1` as the compound, how does the Potency read?
A: inconclusive [activator, single point]

Q: For `Cc1cc(NC(=O)c2ccccc2F)ncc1NC(=O)c1cccs1`, which Potency is on record?
A: inactive

Q: Which Potency does the source give for `Cc1cc(NC(=O)C(C)C)ncc1NC(=O)c1cccc(F)c1` here?
A: inconclusive [activator, partial curve, poor fit]

Q: Which Potency does the source give for `COc1nc(-c2ccc(C)cc2)ccc1-c1noc(-c2ccco2)n1` here?
A: inactive

Q: With `COc1cccc2sc(N(CCN(C)C)C(=O)/C=C/c3cccs3)nc12` as the compound, how does the Potency read?
A: inconclusive [activator, partial curve, poor fit]

Q: With `O=c1c2ccccc2sn1-c1ccc(F)cc1` as the compound, how does the Potency read?
A: inconclusive [activator, partial curve, poor fit]

Q: Which Potency does the source give for `CCN(CC(=O)Nc1ccc2c(c1)OCCO2)C(=O)c1cc(Cl)nc2ccccc12` here?
A: inactive

Q: Which Potency does the source give for `CCCC(=O)Nc1ccc(-c2nc3cc(C)c(C)cc3o2)cc1` here?
A: inconclusive [activator, partial curve, poor fit]

Q: With `Cc1nc(SCc2cccc(C(=O)O)c2)nc2c1CCCC2` as the compound, how does the Potency read?
A: inactive

Q: With `COc1ccc(-c2coc3cc(OC)cc(OC)c3c2=O)cc1` as the compound, how does the Potency read?
A: inactive

Q: For `COc1ccc(Nc2ccnc3ccccc23)cc1`, which Potency is on record?
A: inconclusive [activator, single point]

Q: Which Potency does the source give for `CCCn1c(SCC(=O)N2CCCC2=O)nc2ccccc2c1=O` here?
A: inactive

Q: For `O=C1CC(c2ccc3c(c2)OCCO3)Oc2ccccc21` (centres undefined), which Potency is on record?
A: inconclusive [activator, partial curve, poor fit]

Q: For `Cc1ccnc(NC(=O)c2sc3ccccc3c2Cl)c1`, which Potency is on record?
A: inconclusive [activator, partial curve, poor fit]

Q: For `CCN(CC)CCN(C(=O)c1ccc2c(c1)OCCO2)c1nc2cc(C)cc(C)c2s1`, which Potency is on record?
A: inconclusive [activator, partial curve, poor fit]

Q: Which Potency does the source give for `NNc1ccc(Cl)c(C(=O)O)c1` here?
A: inconclusive [activator, full curve, poor fit]

Q: With `O=C(c1ccc2c3n(nc2c1)-c1ccc(Cl)cc1CO3)N1CCCCC1` as the compound, how does the Potency read?
A: inconclusive [activator, full curve, poor fit]

Q: For `COc1cc(C(=O)N/N=C(\Cc2ncc[nH]2)c2ccccc2)cc(OC)c1OC`, which Potency is on record?
A: inconclusive [activator, single point]

Q: With `COc1ccc(-c2noc(-c3ccccc3-c3ccccc3)n2)cc1` as the compound, how does the Potency read?
A: inactive

Q: For `Cc1ccc(NC(=O)CSc2nc3c(c(=O)[nH]2)CCC3)c(C)c1`, which Potency is on record?
A: inactive

Q: Which Potency does the source give for `O=C(CCS(=O)(=O)c1ccc(Cl)cc1)Nc1nccs1` here?
A: inconclusive [activator, partial curve, poor fit]

Q: With `CC(=O)OC(Cn1ccnc1)c1ccccc1` (centres undefined) as the compound, how does the Potency read?
A: inconclusive [activator, single point]
